Measured values as given in the supplement of paper PMC3334620.
The full ranking holds about 33,000 sequences; the median of “E-score (-0.5 to 0.5)” is about -0.021, and the highest 2% start at about 0.32. This is one part of the list.

Each sequence was assayed against T1, Zap1 (UniProt P47043) (assay: PBM E-score (8-mer binding enrichment) (E-score (-0.5 to 0.5)); higher = stronger / more preferred TF binding; most listed sequences are background and not binding sites). Settings: protein concentration: 200 nM; construct: GST-full length.
T1 sequence: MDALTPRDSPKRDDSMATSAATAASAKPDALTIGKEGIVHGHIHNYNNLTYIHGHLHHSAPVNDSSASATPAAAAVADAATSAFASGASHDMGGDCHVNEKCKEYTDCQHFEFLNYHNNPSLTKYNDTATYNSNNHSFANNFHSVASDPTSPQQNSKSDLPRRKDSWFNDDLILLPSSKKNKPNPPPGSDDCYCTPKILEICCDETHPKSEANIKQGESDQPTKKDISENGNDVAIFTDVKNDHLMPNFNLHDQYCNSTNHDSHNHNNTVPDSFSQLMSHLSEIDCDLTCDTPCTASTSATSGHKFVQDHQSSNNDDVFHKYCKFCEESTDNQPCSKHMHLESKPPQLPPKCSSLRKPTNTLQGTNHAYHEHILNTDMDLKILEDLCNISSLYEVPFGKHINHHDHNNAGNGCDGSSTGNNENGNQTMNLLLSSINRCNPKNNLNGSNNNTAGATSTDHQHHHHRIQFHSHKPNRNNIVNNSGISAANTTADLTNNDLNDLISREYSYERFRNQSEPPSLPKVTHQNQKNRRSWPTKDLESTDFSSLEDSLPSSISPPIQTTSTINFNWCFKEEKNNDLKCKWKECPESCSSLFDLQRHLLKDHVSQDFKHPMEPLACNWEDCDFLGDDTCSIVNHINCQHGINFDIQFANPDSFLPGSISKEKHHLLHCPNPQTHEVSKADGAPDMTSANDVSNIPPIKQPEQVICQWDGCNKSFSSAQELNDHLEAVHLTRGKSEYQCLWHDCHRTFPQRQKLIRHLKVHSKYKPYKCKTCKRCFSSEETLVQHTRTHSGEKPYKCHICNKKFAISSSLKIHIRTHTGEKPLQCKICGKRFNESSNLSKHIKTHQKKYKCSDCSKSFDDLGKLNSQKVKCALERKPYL
Method: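 Universal 'all 10-mer' protein binding microarrays (Agilent AMADID 015681) probed with GST-tagged S. cerevisiae TFs (full-length or DBD) made by in vitro transcription/translation (PURExpress), about 100-200 nM. Bound TF was detected with fluorescent anti-GST. Each ungapped 8-mer (which stands for itself and its reverse complement) is scored by the PBM enrichment score (E-score), a modified Wilcoxon-Mann-Whitney statistic from -0.5 to +0.5, computed with the Universal PBM Analysis Suite. Scale: above 0.35 generally sequence-specific binding.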

Row | Sequence | PBM E-score
1 | GCCACGAA | -0.0613
2 | GTCAGCAC | -0.128
3 | CTTGATAA | 0.11
4 | CGCTCGCA | 0.11
5 | AAAACAGA | -0.00762
6 | ACCCCCAT | 0.0539
7 | ATATGTCC | -0.00136
8 | CCGCACTA | 0.00052
9 | CTTCCTAA | 0.0693
10 | CCGAACCC | -0.0867
11 | CGTGGGAG | -0.166
12 | TAATCCAA | 0.11
13 | CCCTCTCA | -0.23
14 | ACTCGAAG | -0.152
15 | CCCCAAAC | 0.0917
16 | CCCGAGTA | -0.0893
17 | AACGGACC | 0.00508
18 | ACCGAGAG | 0.0813
19 | GGGCGTGA | -0.0483
20 | CCGAAGAG | -0.261
21 | GCCGCTTA | -0.00919
22 | GTCGACAA | -0.0455
23 | TATACAAA | 0.196
24 | AGCTGTCG | -0.213
25 | CCAATGAG | -0.133

Row | Sequence | PBM E-score
26 | ACAAGTTC | -0.0552
27 | AATTACGC | -0.0544
28 | CTGACGGC | -0.263
29 | ATCACAGA | 0.0662
30 | AGGCAAAA | 0.119
31 | AGCCAGAT | -0.125
32 | GGAACTAA | 0.106
33 | ACAGTATG | 0.0365
34 | AGCGCCTC | -0.279
35 | CACTTCCA | -0.0774
36 | AGTCCACA | 0.0582
37 | CGGGTTCA | 0.0209
38 | CATATAAC | 0.221
39 | ACCCCACT | 0.217
40 | GGTCTTCA | 0.0243
41 | CAAGCCGA | -0.0853
42 | AAATGTAT | 0.082
43 | CAGATGTA | -0.224
44 | AACATTAT | -0.0194
45 | AAGCACAG | -0.11
46 | AACAGTCG | -0.121
47 | AAAGCAAC | 0.0537
48 | GGGGATAA | 0.148
49 | ACTCCGGG | 0.166
50 | CCCTTCGC | -0.0395

Row | Sequence | PBM E-score
51 | TCTAGCCA | 0.0396
52 | GCCAAGTA | -0.136
53 | CGCTACTA | -0.0303
54 | AACACCCA | -0.0123
55 | ACATTGCG | -0.0448
56 | ATTCGTGA | 0.0081
57 | GCGCTGTA | -0.043
58 | GCACGAAA | -0.0815
59 | GCAGCCGA | -0.153
60 | ATAGAGAT | -0.0573
61 | GAGTGCCA | -0.241
62 | GACAATGA | 0.00712
63 | ATCATATC | 0.0199
64 | CAGGACAC | -0.0793
65 | TATAATCA | 0.245
66 | ATCAACGA | -0.00872
67 | AACAACCG | 0.1
68 | AAATATAT | 0.224
69 | TGCTGACA | -0.139
70 | CAAGAATC | -0.0146
71 | CGCAAAAA | 0.134
72 | AGGCTTCC | -0.229
73 | CCCGTGAA | -0.0297
74 | GAATCGCC | -0.224
75 | TTGGTAAA | 0.166

Row | Sequence | PBM E-score
76 | AGGAGGCA | -0.123
77 | CGGATGTA | -0.201
78 | GTAGAAAA | 0.124
79 | TGATCTAA | 0.0921
80 | AGCCGATA | -0.237
81 | GGTCTGAA | 0.135
82 | CTTGACTC | -0.205
83 | ACAGACGG | -0.221
84 | AAATGGCC | 0.0268
85 | GCTGTGGA | -0.0748
86 | ATGAGGCC | 0.171
87 | ACTTACGG | 0.0636
88 | TGCGTTAA | 0.127
89 | CAAAGGGA | -0.0511
90 | ACGGCGGA | -0.13
91 | AGCACGTC | -0.298
92 | AGTACCAA | 0.254
93 | CCGGGCCC | -0.0329
94 | CACGGTTA | 0.372
95 | CCATAGAA | 0.0531
96 | CAAATTCC | -0.00509
97 | GGAATCGA | -0.255
98 | AACATCAC | 0.0232
99 | GTATCACA | 0.0613
100 | TTACAGAA | 0.133

Row | Sequence | PBM E-score
101 | ATACACAC | 0.177
102 | GAACAAAC | 0.128
103 | AGTCGTGG | -0.101
104 | ACCTTAGG | 0.216
105 | GGCGTTAC | 0.0794
106 | ACGTAGGC | -0.0949
107 | AGATACCG | 0.0651
108 | CAATCGTC | -0.158
109 | CTTACATA | 0.0764
110 | TACTTTCA | 0.059
111 | CCGTCACA | -0.0724
112 | ACGAAGGG | 0.0647
113 | AAAGCTCT | -0.157
114 | AACCTATC | 0.203
115 | CTTGGCTC | -0.192
116 | AGCGGAGG | -0.196
117 | AGCTTGAC | -0.0289
118 | CCCCCTTA | -0.365
119 | GAATCACA | -0.17
120 | AATCTACA | 0.167
121 | AGTGACAC | -0.119
122 | CCCTACTC | 0.0737
123 | CAGACGAG | -0.164
124 | CGCTTAAC | 0.131
125 | CCGTATCG | -0.15

Row | Sequence | PBM E-score
126 | CCGCGCAG | -0.043
127 | ATTCGCGC | -0.0824
128 | CCGTCGTC | -0.228
129 | GGGCCACA | 0.0248
130 | GACCGATC | -0.154
131 | ATTGAATG | 0.113
132 | GTGTTGAA | -0.0764
133 | AAGGTCCA | 0.00444
134 | AGAAGCCC | -0.122
135 | GGGCCCCA | 0.0485
136 | CATAGGTC | 0.106
137 | CAAGTACG | -0.218
138 | ATCCTGCA | -0.0915
139 | AGTCCTCA | -0.078
140 | CGCAGACG | -0.129
141 | CCCTGCGG | 0.292
142 | AACACTCT | -0.0922
143 | ACAATGTC | 0.00751
144 | AAAAGTGG | 0.242
145 | CCAAATGC | 0.0316
146 | AGTACTAT | 0.124
147 | ACTATGCC | -0.0338
148 | ATTACTCA | 0.0908
149 | TCGGGTCA | 0.233
150 | CGCTATAA | 0.00813

Row | Sequence | PBM E-score
151 | ATCCGCCG | 0.0104
152 | AGTTGTTA | 0.161
153 | AAGCGTGT | -0.184
154 | AGCCAGTG | -0.208
155 | AGGAGCAT | -0.326
156 | AGTTAACC | 0.289
157 | AATACATT | 0.0382
158 | CGAGACGC | -0.189
159 | CGCATAGA | -0.00888
160 | TCTTAACA | -0.0657
161 | AAACGCTT | -0.162
162 | CACTTGAA | 0.0498
163 | ATAGAGAA | -0.0311
164 | TATGGCGA | -0.125
165 | CCCGATGA | 0.0306
166 | CAGTCAAA | -0.0966
167 | ACAGGCAC | -0.297
168 | CGTGACTA | 0.0834
169 | AATACCGA | 0.014
170 | ACTCTGAA | -0.0473
171 | CTAATCGA | 0.0645
172 | AGATAAGA | 0.125
